# PubChem BioAssay AID1347165 (National Center for Advancing Translational Sciences (NCATS), 2019)
# “And” between values parts separate entries of the source, which are not always exact repeats. Equal values may be shown once. Out of some 220,000 compounds screened, about 5,700 (2.6%) were called active. Inconclusive means that the source gave no clear call. Such entries were picked first, then a sample of the others. Calls follow the shape of the dose curve; as a rule, active = well fitted inhibition curve with a large enough effect; inconclusive = small, poorly fitted or top-dose-only effect; inactive = no such curve, though single readings can be large or run the other way. Potencies of inconclusive entries are doubtful fits and often do not repeat.
# Molecular target: Lysine-specific demethylase 5B (Homo sapiens) (UniProt Q9UGL1)
# Assay: Primary screen for KDM5B Histone Demethylases FDH-coupled qHTS; also: nearly all actives have a fitted effect of over 70% in size; as to activity change, negative = inhibition: 0% is about no effect
# Conditions: FDH-coupled NADH fluorescence (FDH is formaldehyde dehydrogenase); activity change, negative = inhibition: at 57.7 µM (top of the series) unless noted
# How it was run: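 Compound dilutions met 200 nM (final) KDM5BΔAP for 10 min at room temperature before substrate addition. The substrate mix held 12.5 µM H3K4me3 with cofactors 25 µM α-ketoglutarate and 50 µM Fe²⁺. NADH signal gain over 30 min defined activity.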
# Potency is read from the fitted curve at half-maximal effect; tags tell the direction and shape of the fitted curve.
# Sequence of UniProt Q9UGL1 (Q9UGL1 whole entry, looked up): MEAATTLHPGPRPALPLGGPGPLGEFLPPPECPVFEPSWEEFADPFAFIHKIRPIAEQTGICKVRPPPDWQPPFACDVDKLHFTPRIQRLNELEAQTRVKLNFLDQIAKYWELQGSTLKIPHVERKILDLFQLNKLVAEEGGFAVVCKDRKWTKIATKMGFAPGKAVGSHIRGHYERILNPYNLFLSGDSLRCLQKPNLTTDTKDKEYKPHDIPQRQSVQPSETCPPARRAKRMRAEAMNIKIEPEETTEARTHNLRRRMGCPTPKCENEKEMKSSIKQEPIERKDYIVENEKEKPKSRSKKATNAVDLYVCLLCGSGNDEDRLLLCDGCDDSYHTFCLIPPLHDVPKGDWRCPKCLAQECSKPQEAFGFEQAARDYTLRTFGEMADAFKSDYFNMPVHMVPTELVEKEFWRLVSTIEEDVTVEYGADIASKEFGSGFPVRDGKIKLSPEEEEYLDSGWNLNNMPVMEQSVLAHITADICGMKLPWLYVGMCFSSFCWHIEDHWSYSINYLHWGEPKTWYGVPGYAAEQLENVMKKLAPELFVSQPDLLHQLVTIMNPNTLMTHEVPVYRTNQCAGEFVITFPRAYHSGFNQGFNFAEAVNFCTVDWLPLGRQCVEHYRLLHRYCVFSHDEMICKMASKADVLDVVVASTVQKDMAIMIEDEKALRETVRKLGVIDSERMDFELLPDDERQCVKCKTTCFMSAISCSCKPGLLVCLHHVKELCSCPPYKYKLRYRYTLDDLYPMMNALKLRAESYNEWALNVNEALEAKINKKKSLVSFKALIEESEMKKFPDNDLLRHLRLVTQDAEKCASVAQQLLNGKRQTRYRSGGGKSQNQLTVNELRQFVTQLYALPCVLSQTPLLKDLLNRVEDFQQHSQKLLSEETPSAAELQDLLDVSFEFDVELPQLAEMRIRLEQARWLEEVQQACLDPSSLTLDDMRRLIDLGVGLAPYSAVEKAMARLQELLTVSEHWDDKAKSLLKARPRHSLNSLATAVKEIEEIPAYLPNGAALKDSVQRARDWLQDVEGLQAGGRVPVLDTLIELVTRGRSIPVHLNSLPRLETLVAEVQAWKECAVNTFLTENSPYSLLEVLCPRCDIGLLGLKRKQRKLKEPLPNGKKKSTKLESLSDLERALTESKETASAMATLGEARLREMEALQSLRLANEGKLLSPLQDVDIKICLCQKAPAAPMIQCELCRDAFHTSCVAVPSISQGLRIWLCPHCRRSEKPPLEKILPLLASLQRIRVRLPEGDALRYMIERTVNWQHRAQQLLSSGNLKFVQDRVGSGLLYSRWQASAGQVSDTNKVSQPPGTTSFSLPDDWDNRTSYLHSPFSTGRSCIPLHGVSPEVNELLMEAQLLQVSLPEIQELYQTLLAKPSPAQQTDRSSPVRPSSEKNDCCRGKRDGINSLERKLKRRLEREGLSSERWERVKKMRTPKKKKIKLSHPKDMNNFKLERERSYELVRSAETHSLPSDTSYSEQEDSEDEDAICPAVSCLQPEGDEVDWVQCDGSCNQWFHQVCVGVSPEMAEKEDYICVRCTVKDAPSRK
Compound,"activity change, negative = inhibition",Potency
CN(C)c1cccc(C(=O)N2CCC3(CCCN(CC4CC4)C3)C2)c1 (centres undefined),inactive: 21.3%,–
FC(F)(F)c1cccc(-c2nccn3c(C4CN(Cc5ccc6cn[nH]c6c5)C4)ncc23)c1,–,"inconclusive: 20 µM [inhibitor, partial curve, poor fit]"
CC1CCCCN1Cc1c(O)ccc2c(=O)c(-c3ccccc3)coc12 (centres undefined),–,"inconclusive: 35.5 µM [inhibitor, partial curve, poor fit] and inconclusive: 28.2 µM [inhibitor, partial curve, poor fit]"
COc1ccc(C2(c3ccc(OC)cc3)C=Cc3c(ccc4ccc(O)cc34)O2)cc1,inactive: -13.6%,–
O[C@@H]1C[C@@H](c2nc(-c3ccc(F)cc3)no2)N(Cc2ccc(F)cc2)C1,–,"inconclusive: 31.6 µM [inhibitor, partial curve, poor fit]"
Cc1ccc(CNC(=O)c2sc3nc(-c4ccc(F)cc4)ccc3c2N)cc1,–,"inconclusive: 15.8 µM [inhibitor, partial curve, poor fit]"
COc1cc(F)ccc1-c1cc2c(ccn2C)c(C(=O)NCCc2cnc[nH]2)n1,inactive: -2710% [at 86.2 µM],–
CCc1ccc(N2CC(c3noc(-c4ccc(OC)cc4)n3)CC2=O)cc1 (centres undefined),–,"inconclusive: 35.5 µM [inhibitor, partial curve, poor fit]"
CCCCC(NC(=O)COc1cc2c(c3oc(=O)cc(C)c13)CCC(C)(C)O2)C(=O)O (centres undefined),–,"inconclusive: 28.2 µM [inhibitor, partial curve, poor fit]"
O=C(NCC1CCCO1)c1c[nH]c2ccc(S(=O)(=O)Nc3ccc(F)cc3F)cc2c1=O (centres undefined),–,"inconclusive: 39.8 µM [inhibitor, single point]"
Cc1ccc2nc(N3CCN(C(=O)CCC(=O)O)CC3)nc(-c3ccccc3)c2c1,–,"inconclusive: 25.1 µM [inhibitor, single point] and inconclusive: 28.2 µM [inhibitor, partial curve, poor fit]"
CC(C)(C)c1ccc(-c2nc(S(=O)(=O)c3ccccc3)c(N3CCOCC3)o2)cc1,–,"inconclusive: 22.4 µM [inhibitor, partial curve, poor fit]"
O=C1CC2(CCN(CC3CCNC3)C2)Nc2ccccc2N1 (centres undefined),–,active: 112 µM
CN(C)CCCn1c(=O)n(-c2ccc(Cl)cc2)c(=O)c2c3c(sc21)CN(C)CC3,–,"inconclusive: 8.91 µM [inhibitor, partial curve, poor fit]"
Cc1ccc(CNC(=O)c2cc3c(s2)-c2ccc(Cl)cc2SC3)cc1,–,"inconclusive: 31.6 µM [inhibitor, partial curve, poor fit]"
CCc1cc2c(=O)c(-c3nc4ccccc4n3C)coc2c(CN2CCCC(C)C2)c1O (centres undefined),–,"inconclusive: 25.1 µM [inhibitor, single point]"
CO[C@@H]1C[C@H]2C(=O)Nc3ccc(-c4cccc(C(F)(F)F)c4)cc3C(=O)N2C1,–,"inconclusive: 50.1 µM [inhibitor, single point]"
Cc1ccc(CSC2=Nc3ccccc3C3=NC(CC(=O)NCc4cccs4)C(=O)N23)cc1 (centres undefined),–,"inconclusive: 25.1 µM [inhibitor, partial curve, poor fit]"
COc1ccccc1-c1cc2nc(C)cc(C)n2n1,–,"inconclusive: 39.8 µM [inhibitor, single point]"
CN1c2cc(C(=O)NC3CCCCC3)ccc2C(=O)N2CCCC21 (centres undefined),–,"inconclusive: 20 µM [inhibitor, partial curve, poor fit]"

Compound,"activity change, negative = inhibition",Potency
CCc1cccc(NC(=O)Cn2c(=O)n(CCC(=O)NCC3CCCO3)c(=O)c3cc(OC)c(OC)cc32)c1 (centres undefined),–,"inconclusive: 28.2 µM [inhibitor, partial curve, poor fit]"
CCC(=O)N1Cc2ccccc2CC2(CCCN(CC3CCOCC3)C2)C1 (centres undefined),inactive: 11.3% [at 115 µM],–
Cc1nn2c(c1-c1cccnc1N1CCOCC1)N(C(=O)Cc1ccc(Cl)cc1)CCC2,–,"inconclusive: 25.1 µM [inhibitor, single point]"
COc1cccc(NC(=O)Cc2c[nH]c3ncc(-c4ccccc4C)cc23)c1,–,"inconclusive: 35.5 µM [inhibitor, partial curve, poor fit]"
O=S1CCN(c2nc(C3CC3)nc3sc4c(c23)CCCC4)CC1,inactive: 27.7%,–
CCOC(=O)c1cccc(Nc2nc3ccccc3nc2NS(=O)(=O)c2ccc(C)cc2)c1,inactive: 8.81%,–
COc1ccc(NC(=O)Nc2cccc(-c3cn4cccnc4n3)c2)cc1,–,"inconclusive: 15.8 µM [inhibitor, partial curve, poor fit]"
Cc1ccc(-c2cc(C(=O)NCCN(C)C)c3ccccc3n2)cc1C,–,"inconclusive: 20 µM [inhibitor, partial curve, poor fit]"
C=C(C)Cn1c(N2CCN(Cc3ccccc3F)CC2)nc2c1c(=O)[nH]c(=O)n2C,inactive: 11.2%,–
O=S(=O)(c1ccc(-c2csc(Nc3ccccc3)n2)cc1)N1CCOCC1,–,"inconclusive: 11.2 µM [inhibitor, partial curve, poor fit]"
Cc1nc2ccn(Cc3ccccc3)c(=O)c2cc1C(=O)NCc1ccccc1F,–,"inconclusive: 28.2 µM [inhibitor, partial curve, poor fit]"
CCc1ccc(C2CC(=O)NC(NC(=O)c3ccc(C(C)(C)C)cc3)=N2)cc1 (centres undefined),–,"inconclusive: 25.1 µM [inhibitor, single point]"
O=C(NC1CCN(c2nc3ncccc3o2)CC1)c1ccccc1Cl,–,"inconclusive: 28.2 µM [inhibitor, partial curve]"
CCN1c2cc(C(=O)NCc3ccc(F)cc3Cl)ccc2C(=O)N2CCCCC21 (centres undefined),–,"inconclusive: 22.4 µM [inhibitor, partial curve, poor fit]"
COc1ccc(OCC2(C)COc3ccc(C(=O)NCc4cccnc4)cc3N2)cc1 (centres undefined),–,"inconclusive: 28.2 µM [inhibitor, partial curve, poor fit]"
COc1ccc(OC)c(CNC(=O)C2(CCO)CCN(c3ncccn3)C2)c1 (centres undefined),–,"inconclusive: 22.4 µM [inhibitor, single point]"
O=C(O)c1cccc(Nc2nc3ccccc3nc2NS(=O)(=O)c2ccc(Br)cc2)c1,–,"inconclusive: 35.5 µM [inhibitor, single point]"
CCOc1ccc(-n2nc(CO)c(C(=O)NCc3ccc4c(c3)OCO4)n2)cc1,–,"inconclusive: 1.78 µM [inhibitor, full curve, poor fit]"
O=C(CCCn1ccc2cc(S(=O)(=O)N3CCCC3)ccc21)NCc1ccc(Cl)cc1,–,"inconclusive: 31.6 µM [inhibitor, single point]"
O=C(CSCc1cccs1)NCC1CCCO1 (centres undefined),inactive: 14.5%,–

Compound,"activity change, negative = inhibition",Potency
CCOCCCNC(=O)c1cc2c(=O)[nH]c3ccccc3c2n1C,–,"inconclusive: 31.6 µM [inhibitor, partial curve, poor fit]"
Cc1ccc(Nc2nc(CN3CCN(S(=O)(=O)c4cc(C)ccc4C)CC3)cs2)cc1,inactive: -10.4%,–
COCCNC(=O)Cn1nc(Cc2ccncc2)c2ccccc2c1=O,inactive: 23.1%,–
COc1cc(F)cc(-c2cnc3[nH]cc(CC(=O)NCc4cccnc4)c3c2)c1,–,"inconclusive: 39.8 µM [inhibitor, partial curve, poor fit]"
CN(Cc1ccc(F)cc1)c1cc(C(=O)N2CCOCC2)c2ccccc2n1,–,"inconclusive: 22.4 µM [inhibitor, partial curve, poor fit]"
COc1cccc(-n2cc(C(=O)Nc3cc(C)c(Cl)cc3OC)c3ccccc3c2=O)c1,–,"inconclusive: 35.5 µM [inhibitor, partial curve, poor fit]"
CCc1ccccc1NC(=O)Nc1cc(C(=O)NCc2ccc(OC)cc2)ccc1N1CCCC1,–,"inconclusive: 22.4 µM [inhibitor, partial curve, poor fit]"
O=C(c1ccccc1)n1nc(-c2ccco2)nc1NCc1ccccc1Cl,–,"inconclusive: 1.41 µM [inhibitor, full curve, poor fit]"
COc1ccc(N(C(=O)COc2ccccc2OC)S(=O)(=O)c2ccc(Cl)cc2)cc1,–,"inconclusive: 0.891 µM [inhibitor, full curve, poor fit]"
Cc1cccc(-c2ccc3c(c2)C(=O)N2CC[C@H](NC(=O)NC(C)C)C[C@H]2C(=O)N3)c1C,–,"inconclusive: 35.5 µM [inhibitor, single point]"
CC(=O)N1CC[C@H](c2nnc(Cc3c[nH]c4ccccc34)o2)C1,–,"inconclusive: 31.6 µM [inhibitor, single point]"
CCCn1cc(C2CCN(S(=O)(=O)c3ccccc3Cl)CC2)c2ccccc21,–,"inconclusive: 17.8 µM [inhibitor, single point]"
CC(C)CC(NC(=O)c1ccn(C)c(=O)c1)c1ccccc1 (centres undefined),–,"inconclusive: 25.1 µM [inhibitor, partial curve, poor fit]"
O=C(c1cc(N2CCCCCC2)nc2ccccc12)N1CCOCC1,inactive: -8.12%,–
CCc1ccc(-c2nc3cc(NC(=O)c4cccnc4)ccc3o2)cc1,–,"inconclusive: 39.8 µM [inhibitor, single point]"
Cc1[nH]c2ccccc2c1C(=O)C(=O)NCC(=O)N(C)C,inactive: 5.54%,–
CCCCc1ccc(CC(=O)Nc2cc(S(=O)(=O)N3CCOCC3)ccc2O)cc1,–,"inconclusive: 25.1 µM [inhibitor, partial curve, poor fit]"
Cc1c(-c2ccc(Cl)cc2)c(=O)oc2c(CN3CCCC3)c(O)ccc12,–,"inconclusive: 14.1 µM [inhibitor, partial curve, poor fit]"
Cc1ccc(Cl)cc1N1CCN(C(=O)CN2CC3CC(C2)[C@H]2CCCC(=O)N2C3)CC1 (some centres undefined),inactive: 3.45%,–
